Data taken from PubChem BioAssay AID504332 (National Center for Advancing Translational Sciences (NCATS), 2011).
Hit rate of the full screen: of about 350,000 compounds, about 31,000 (8.9%) were called active. Inconclusive means that the source gave no clear call. Such entries were picked first, then a sample of the others. Calls come from the whole dose curve; as a rule, active = well fitted inhibition curve with a large enough effect; inconclusive = small, poorly fitted or top-dose-only effect; inactive = no such curve, though single readings can be large or run the other way. Potencies beside an inconclusive call are fits to weak or partial responses and may not hold up.

Target: Histone-lysine N-methyltransferase EHMT2 (Homo sapiens) (UniProt Q96KQ7)
Test: qHTS Assay for Inhibitors of Histone Lysine Methyltransferase G9a; note: nearly all actives have a fitted effect of over 75% in size
Conditions: G9a H3K9 monomethylation, AlphaScreen, 2 h; activity, negative = inhibition: at 59 µM (top of the series) unless noted
Procedure, shortened: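 G9a (20 nM) was preincubated 15 min with compound, then reacted 2 h at room temperature with 500 nM biotin-H3K9 peptide and 20 µM SAM. Monomethyl-H3K9 detected by AlphaScreen using anti-H3K9me1 antibody.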
% is set by controls: 0 for no effect and ±100 for the full control effect; potency is the fitted concentration of half-maximal effect; tags give direction and shape of the fitted curve.

UniProt Q96KQ7, sequence (Q96KQ7 whole entry, looked up): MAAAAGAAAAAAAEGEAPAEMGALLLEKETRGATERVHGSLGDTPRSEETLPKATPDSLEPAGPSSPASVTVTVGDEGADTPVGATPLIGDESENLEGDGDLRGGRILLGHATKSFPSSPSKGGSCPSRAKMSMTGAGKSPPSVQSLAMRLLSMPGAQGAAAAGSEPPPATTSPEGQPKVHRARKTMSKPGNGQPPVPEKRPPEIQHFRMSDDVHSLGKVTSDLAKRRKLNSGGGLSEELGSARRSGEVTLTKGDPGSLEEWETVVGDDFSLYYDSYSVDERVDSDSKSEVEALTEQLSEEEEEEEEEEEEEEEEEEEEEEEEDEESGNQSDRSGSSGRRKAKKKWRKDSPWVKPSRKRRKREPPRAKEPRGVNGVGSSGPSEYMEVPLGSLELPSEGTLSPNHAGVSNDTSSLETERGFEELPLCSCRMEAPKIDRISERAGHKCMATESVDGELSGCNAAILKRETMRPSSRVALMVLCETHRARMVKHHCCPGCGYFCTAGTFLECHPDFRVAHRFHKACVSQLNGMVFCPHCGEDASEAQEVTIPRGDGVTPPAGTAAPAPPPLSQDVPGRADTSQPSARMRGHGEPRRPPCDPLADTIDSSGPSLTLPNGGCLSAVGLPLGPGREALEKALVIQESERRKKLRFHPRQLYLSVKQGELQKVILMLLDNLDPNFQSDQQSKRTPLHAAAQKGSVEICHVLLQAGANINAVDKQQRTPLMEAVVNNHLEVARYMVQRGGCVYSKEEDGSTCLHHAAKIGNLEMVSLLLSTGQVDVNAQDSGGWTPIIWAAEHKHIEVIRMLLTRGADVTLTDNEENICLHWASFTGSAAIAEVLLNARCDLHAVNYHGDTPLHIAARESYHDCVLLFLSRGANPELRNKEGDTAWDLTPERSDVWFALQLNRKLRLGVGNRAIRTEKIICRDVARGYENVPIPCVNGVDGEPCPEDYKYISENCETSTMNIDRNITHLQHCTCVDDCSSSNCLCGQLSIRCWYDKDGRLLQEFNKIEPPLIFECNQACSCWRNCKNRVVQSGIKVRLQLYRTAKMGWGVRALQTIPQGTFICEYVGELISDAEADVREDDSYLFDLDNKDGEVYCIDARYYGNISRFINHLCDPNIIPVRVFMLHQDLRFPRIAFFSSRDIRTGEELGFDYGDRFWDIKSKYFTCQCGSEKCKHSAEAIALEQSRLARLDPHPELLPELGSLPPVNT

| Compound | Potency | activity, negative = inhibition |
| --- | --- | --- |
| Cc1c(Cl)cnc(NC(=O)COC(=O)c2ccc(S(=O)(=O)NCc3ccco3)cc2)c1Cl | active: 44.7 µM | – |
| O=[N+]([O-])c1cccc(-c2noc(-c3ccco3)n2)c1 | inconclusive: 39.8 µM [inhibitor, partial curve] | – |
| Cc1cc(Cl)ccc1OCCCC(=O)NCCc1nnc2ccccn12 | inactive | – |
| Cc1nc(C)c(C(=O)N2CCCC(C(=O)c3ccc(Cl)cc3C)C2)s1 (stereo unspecified) | inactive | – |
| C/C(=N\NC(=O)c1ccncc1)c1ccc(NC(=O)c2ccc(Cl)cc2)cc1 | inconclusive: 3.55 µM [inhibitor, full curve, poor fit] | – |
| CN(C)CCNC(=O)CN1C(=O)COc2ccc(S(=O)(=O)N3CCCC3)cc21 | inactive | – |
| CCOc1ccccc1NC(=O)c1c(NC(=O)COc2ccccc2)sc2c1CCCC2 | inactive | – |
| CC(C)C1C(C#N)=C(N)SC(N)=C1C#N | active: 14.1 µM | – |
| COc1cc(NC(C)C(=O)N2CC(C)OC(C)C2)cc(OC)c1 (stereo unspecified) | inconclusive: 3.16 µM [inhibitor, single point] | – |
| CNc1nc(SC)nc(N(C#N)CC(=O)OC)n1 | inconclusive: 35.5 µM [inhibitor, single point] | – |
| COc1ccc(Nc2nc(N)nc(CN3CCC(C)CC3)n2)cc1 | active: 20 µM | – |
| Cc1cc(/C=N/NC(=O)c2ccccc2F)c(C)n1-c1ccccc1 | active: 50.1 µM | – |
| Cc1ccc(C(=O)NCCC(=O)NCc2ccco2)cc1 | inconclusive: 89.1 µM [inhibitor, single point] | – |
| C[C@H]1CC[C@H]2C(=O)N[C@H](Cc3ccccc3)C(=O)N2[C@@H]1c1ccccc1 | inconclusive: 89.1 µM [inhibitor, single point] | – |
| COc1cccc(CNc2cnc3ccccc3c2)c1O | inconclusive: 20 µM [inhibitor, single point] | – |
| CN1CCN(C(=O)CSc2nc3ccc(NC(=O)c4ccccc4F)cc3s2)CC1 | inconclusive: 44.7 µM [inhibitor, partial curve] | – |
| CCCOc1ccc(NC(=O)CC2C(=O)N(c3ccccc3)C(=O)N2Cc2ccco2)cc1 (stereo unspecified) | inconclusive: 6.31 µM [inhibitor, single point] | – |
| COc1ccc([C@H]2CC(=O)C=C(c3cc(Cl)ccc3OC)C2)cc1 | – | inactive: -10.6% [at 0.501 µM] |
| CCC(C)(C)NC(=O)/C=C/c1cnc2ccccc2n1 | inconclusive: 7.08 µM [inhibitor, single point] | – |
| CCCCOc1c(C(=O)Nc2ccccc2)nnn1-c1ccccc1 | inconclusive: 28.2 µM [inhibitor, partial curve] | – |
| CCCOc1ccc(CNC(=O)CCCn2ncn3c(cc4sc(CC)cc43)c2=O)cc1 | inactive | – |
| C=CCOc1ccc(CNC(C)(C)C)cc1OC | inactive | – |
| Cc1nc(Nc2cnc(/C=C/c3cc(C(=O)Nc4cccc(C(F)(F)F)c4)ccc3C)cn2)cc(N2CCNCC2)n1 | active: 31.6 µM | – |

| Compound | Potency | activity, negative = inhibition |
| --- | --- | --- |
| COc1ccccc1CNC(=O)CSc1ccc(-c2cccc([N+](=O)[O-])c2)nn1 | inconclusive: 79.4 µM [inhibitor, single point] | – |
| Cc1ccc(-c2cc(C(=O)Nc3ccc(SC(F)F)cc3)no2)cc1F | inconclusive: 10 µM [inhibitor, partial curve, poor fit] | – |
| O=C(Nc1ccc(Cl)c(Cl)c1)N(Cc1cccnc1)Cc1ccco1 | inconclusive: 50.1 µM [inhibitor, partial curve, poor fit] | – |
| Cc1c(Cl)cccc1NC(=S)N1CCC(N(C)CC2CCCO2)CC1 (stereo unspecified) | inactive | – |
| CC(C)[C@@H](NC(=O)C1CCC(CNC(=O)[C@H](Cc2ccccc2)NC(=O)OC(C)(C)C)CC1)C(=O)O (stereo partly specified) | inconclusive: 70.8 µM [inhibitor, single point] | – |
| CC(=O)c1cc(C(=O)Nc2ccccc2C(=O)O)oc1C | active: 50.1 µM | – |
| COc1cccc(Nc2ncc3nc(C)c(=O)n(C)c3n2)c1 | – | inactive: 7.27% [at 0.501 µM] |
| CC(C)OC(=O)c1cccc(NC(=O)Cn2nnc3sc4c(c3c2=O)CCCC4)c1 | inconclusive: 22.4 µM [inhibitor, partial curve, poor fit] | – |
| C=CCOC(=O)C1=C[C@@H](c2csc3ccccc23)C[C@@H](OCc2ccc(CO)cc2)O1 | – | inconclusive: -84% [inhibitor] |
| c1ccc2[nH]c(SN3CCOCC3)nc2c1 | – | inconclusive: -121% [inhibitor] [at 12.7 µM] |
| CCN(CC)C(=O)C1CCCN(Cc2ccc3c(c2)OCO3)C1 (stereo unspecified) | active: 8.91 µM | – |
| COc1cc2c(cc1OC)CN(C(=O)CSc1ccc(F)cc1)CC2 | – | inactive: 13.9% [at 12.7 µM] |
| O=C(O)C1=C[C@H](c2ccc(F)cc2)C[C@H](OCc2ccc(CO)cc2)O1 | inconclusive: 10 µM [inhibitor, single point] | – |
| CCCCn1c(C2CCCCC2)nc2cc3[nH]c(=O)c(C(C)C)nc3cc21 | inconclusive: 56.2 µM [inhibitor, partial curve, poor fit] | – |
| Cc1cc(C(=O)CSc2nnc(-c3cccnc3)n2-c2ccccc2F)c(C)n1C | inconclusive: 89.1 µM [inhibitor, single point] | – |
| OCC1(Cc2ccccc2C(F)(F)F)CCN(Cc2cccc3cnccc23)CC1 | inconclusive: 39.8 µM [inhibitor, single point] | – |
| Cc1c(C#N)c(O)[nH]c(=O)c1N=Nc1ccc(S(N)(=O)=O)cc1 | active: 79.4 µM | – |
| CSc1ccc2c(c1)N(CC[C@H]1CCCCN1C)c1ccccc1S2 | active: 11.2 µM | – |
| O=C(Nc1ccncc1)Nc1ccc(Br)cc1Cl | inconclusive: 79.4 µM [inhibitor, single point] | – |
| Cc1nc(SCC(=O)O)n[nH]1 | inactive | – |
| Brc1ccc(/C=N/n2cnnc2)s1 | inactive | – |
| COc1ccc(CCNC2CC(=O)N(N(C)C)C2=O)cc1OC (stereo unspecified) | inconclusive: 56.2 µM [inhibitor, partial curve, poor fit] | – |
| CCN(CC)c1ccc(NC(=O)c2cccn2-c2nnc(N3CCCCC3)s2)c(C)c1 | inconclusive: 5.62 µM [inhibitor, partial curve, poor fit] | – |
